These results are taken from patent EP4768506A1, “MOLECULAR PROBES TARGETING GPC3 AND USE THEREOF” (Wuhan Raydif Biotechnology Co., Ltd., priority 2023, dated 2025).

For data set [1], the system named is Hep3B (GPC3-positive). The arrangement: species or system nude mice. Conditions: mouse, in vivo. The protocol:
The human-derived liver cancer cell line Hep3B (GPC3-positive) was cultured in complete MEM medium (containing 10% FBS and 1% penicillin-streptomycin). Cells were maintained in a cell culture incubator at 37°C with 5% CO2. Hep3B cells in the logarithmic growth phase were collected, routinely digested with trypsin, and then cell pellets were collected and counted. Subsequently, washing was performed twice with pre-cooled PBS, and cell pellets were collected by centrifugation. A cell resuspension solution was prepared at a volume ratio of PBS : Matrigel = 1:1. The cells were blown thoroughly and then inoculated subcutaneously near the armpit of the right forelimb of each mouse, with each mouse receiving 5 x 10^6 cells (in a volume of 100 µL per mouse). The mice were used for subsequent experiments when the diameter of tumor reached 8-10 mm. Hep3B tumor-bearing nude mice and the Hep3B liver orthotopic cancer model were intravenously injected via tail vein with ^68Ga-NOTA-aGPC3-scFv (3.7-5.55 MBq, 100-150 µCi). PET/CT scans were performed under isoflurane inhalation anesthesia at 1, 2, and 4 h post-injection. Each scan acquisition lasted approximately 15 min. After scanning, PET and CT images were reconstructed following attenuation correction. Regions of interest (ROI) were delineated using Amide software to calculate the uptake values (%ID/g).

Data set [2] in a line: Storage stability of the concentrated chelator-antibody conjugate solution. Type of data set: physicochemical. Conditions: stored at 4°C. The procedure: Antibody aGPC3-Fab was purified via PD-10 desalting chromatography column. The purity of antibody aGPC3-Fab was determined by size exclusion chromatography (SEC-HPLC). 20 nmol of purified antibody aGPC3-Fab was taken and the pH was adjusted to 8.5-9.0 using Na2CO3 (0.1 M, pH 9.0). Then, p-SCN-Bn-NOTA (dissolved in a small volume of DMSO) was added at a molar ratio of 20-30 times relative to the antibody, then reacted overnight at 4°C in the dark to synthesize NOTA-aGPC3-Fab. The excess unreacted NOTA was removed by purification via PD-10 desalting chromatography column. The purified antibody was concentrated using an ultrafiltration centrifuge tube (Millipore 0.5 mL/3 Kd) under conditions of 4°C, 13,000 x g, for 30 min, and then stored in a refrigerator at 4°C. The concentrated antibody solution remained stable for at least 3 months when stored at 4°C. 50 nmol of aGPC3-scFv antibody was taken and the pH was adjusted to 8.5-9.0 using Na2CO3 (0.1 M, pH 9.0). Then, p-SCN-Bn-DOTA (dissolved in a small volume of DMSO) was added at a molar ratio of 20 times relative to the antibody, then reacted at 25°C in the dark for 4 h to synthesize DOTA-aGPC3-scFv. The excess unreacted DOTA was removed by purification via PD-10 desalting chromatography column. […]

Data set [3] deals with Huh7 (GPC3-positive). The arrangement: species or system Balb/c nude mice. Conditions: mouse, in vivo. The procedure: All animal studies were conducted in accordance with the guidelines of the Laboratory Animal Use and Management Committee of Tongji Medical College, Huazhong University of Science and Technology. Female Balb/c nude mice (4-5 weeks old) were purchased from Beijing Huafukang Biological Technology Co. Ltd and housed under SPF conditions at the Experimental Animal Center of Tongji Medical College, Huazhong University of Science and Technology. Huh7 and SK-HEP-1 cells in the logarithmic growth phase were collected, routinely digested with trypsin, and then cell pellets were collected and counted. Subsequently, washing was performed twice with pre-cooled PBS, and cell pellets were collected by centrifugation. A cell resuspension solution was prepared at a volume ratio of PBS : Matrigel = 1:1. The cells were blown thoroughly and then inoculated subcutaneously near the armpit of the right forelimb of each mouse, with each mouse receiving 1 x 10^7 cells (in a volume of 125 µL per mouse). The mice were used for subsequent experiments when the diameter of tumor reached 8-10 mm. Experimental group Huh7 tumor-bearing nude mice, control group SK-HEP-1 tumor-bearing nude mice, and liver cancer PDX models were intravenously injected via tail vein with ^68Ga-NOTA-aGPC3-Fab (3.7-5.55 MBq, 100-150 µCi). PET/CT scans were performed under isoflurane inhalation anesthesia at 0.5, 1, 2, and 4 h post-injection. Each scan acquisition lasted approximately 15 min. After scanning, PET and CT images were reconstructed following attenuation correction. Regions of interest (ROI) were delineated using Amide software to calculate the uptake values (%ID/g).

The subject of data set [4] is PDX transplant tumor. Further details: species or system NSG mice. The note with it: mouse, in vivo. The protocol: Experimental group Huh7 tumor-bearing nude mice, control group SK-HEP-1 tumor-bearing nude mice, and liver cancer PDX models were intravenously injected via tail vein with ^68Ga-NOTA-aGPC3-Fab (3.7-5.55 MBq, 100-150 µCi). PET/CT scans were performed under isoflurane inhalation anesthesia at 0.5, 1, 2, and 4 h post-injection. Each scan acquisition lasted approximately 15 min. After scanning, PET and CT images were reconstructed following attenuation correction. Regions of interest (ROI) were delineated using Amide software to calculate the uptake values (%ID/g). Collection of patient baseline data: the collection of all patient information and tumor samples was approved by the Clinical Ethics Committee of Union Hospital, Tongji Medical College, Huazhong University of Science and Technology. The inclusion criteria for sampling were preoperative suspicion of liver cancer and the assessed ability to obtain more than 200 mm^3 of tumor tissue, with informed consent obtained from the patients prior to surgery. Basic clinical information collected from patients included general patient information, clinical data, tumor markers, biochemical indicators, imaging examination data, and postoperative pathological data. […] The health status of the mice was monitored daily for 5 consecutive days postoperatively, with attention to signs of wound dehiscence or infection. […]

B1: ^68Ga-NOTA-aGPC3-scFv: ^68Ga-labelled NOTA conjugate of the scFv targeting GPC3 (conjugate)
scFv: [about 100 residues not written out]EYDFKTGWMHYYYGMDVWGQGTTVTVSSGGGGSGGGGSGGGGSQSVLTQPPSVSGAPGQRVTISCTGSSSGYDVHWYQQLPGRAPKLLIYGSNNRPSGVPDRFSGSNSGTSASLAITGLQAEDEADYYCQSYDSSLNAIFGGGTKLTVLGHHHHHH
As to B1, the “route of metabolism/clearance (accumulation in kidneys and bladder)” value (“route of metabolism/clearance” below) in data set [1] is on record as “primarily metabolized via the renal pathway”. In addition, in data set [1] (sc), the “blood half-life compared with ^68Ga-NOTA-aGPC3-Fab” value is reported as “shorter blood half-life”, the tumor-to-blood pool ratio was 4.91 ± 1.84, the “tumor-to-blood pool ratio compared with ^68Ga-NOTA-aGPC3-Fab” value is recorded as “significantly higher” and the tumor-to-liver ratio came out at 2.25 ± 0.78. In addition, in data set [1] (sc), the “tumor-to-liver ratio compared with ^68Ga-NOTA-aGPC3-Fab” value is “significantly higher”, the tumor-to-muscle ratio is given as 8.92 ± 5.72 and the “tumor-to-muscle ratio compared with ^68Ga-NOTA-aGPC3-Fab” value is “slightly higher”.

B2: NOTA-aGPC3-Fab: aGPC3-Fab reacted with p-SCN-Bn-NOTA; unlabelled precursor of ^68Ga-NOTA-aGPC3-Fab (conjugate)
heavy: [about 100 residues not written out]EYDFKTGWMHYYYGMDVWGQGTTVTVSSASTKGPSVFPLAPSSKSTSGGTAALGCLVKDYFPEPVTVSWNSGALTSGVHTFPAVLQSSGLYSLSSVVTVPSSSLGTQTYICNVNHKPSNTKVDKKVEPKSCDKTHL
light: QSVLTQPPSVSGAPGQRVTISCTGSSSGYDVHWYQQLPGRAPKLLIYGSNNRPSGVPDRFSGSNSGTSASLAITGLQAEDEADYYCQSYDSSLNAIFGGGTKLTVLGQPKAAPSVTLFPPSSEELQANKATLVCLISDFYPGAVTVAWKADSSPVKAGVETTTPSKQSNNKYAASSYLSLTPEQWKSHRSYSCQVTHEGSTVEKTVAPTECS
Take B2: the “time the concentrated antibody solution remained stable” value in data set [2] is recorded as “at least 3 months”.

B3: ^68Ga-NOTA-aGPC3-Fab: ^68Ga-labelled NOTA conjugate of the Fab antibody targeting GPC3 (conjugate)
heavy: [about 100 residues not written out]EYDFKTGWMHYYYGMDVWGQGTTVTVSSASTKGPSVFPLAPSSKSTSGGTAALGCLVKDYFPEPVTVSWNSGALTSGVHTFPAVLQSSGLYSLSSVVTVPSSSLGTQTYICNVNHKPSNTKVDKKVEPKSCDKTHL
light: QSVLTQPPSVSGAPGQRVTISCTGSSSGYDVHWYQQLPGRAPKLLIYGSNNRPSGVPDRFSGSNSGTSASLAITGLQAEDEADYYCQSYDSSLNAIFGGGTKLTVLGQPKAAPSVTLFPPSSEELQANKATLVCLISDFYPGAVTVAWKADSSPVKAGVETTTPSKQSNNKYAASSYLSLTPEQWKSHRSYSCQVTHEGSTVEKTVAPTECS
For the molecule B3, in data set [3], the “route of metabolism/clearance” value is “primarily metabolized via the renal pathway”; the tumor-to-heart ratio is 3.06; the tumor-to-liver ratio was 1.42; the tumor-to-muscle ratio was determined as 6.60. Also, the “route of metabolism/clearance” value in data set [4] is reported as “primarily metabolized via the renal pathway”.
